The whole screen tested about 48,000 compounds, of which about 450 (0.94%) were called active. Inconclusive means that the source gave no clear call. Such entries were picked first, then a sample of the others. Calls follow the shape of the dose curve; as a rule, active = well fitted inhibition curve with a large enough effect; inconclusive = small, poorly fitted or top-dose-only effect; inactive = no such curve, though single readings can be large or run the other way. Where the call is inconclusive, the potency comes from a doubtful curve fit.
Experiment: Primary qHTS for Identification of Small Molecule Inhibitors of Huntingtin Promoter Activity; also: nearly all actives have a fitted effect of over 50% in size
Conditions: HEK293 HTT promoter firefly luciferase reporter (activity 0% = vehicle and -100% = no light), 24 h; activity change, negative = inhibition: at 57.5 µM (top of the series)
From the text: Assay Provider: Russell L. Margolis M.D.
Department Neurology, Johns Hopkins University School of Medicine, Baltimore, MD
Huntington's Disease (HD) is a neurodegenerative disorder caused by a CAG repeat expansion in exon 1 of huntingtin (HTT). While there are currently no disease-modifying treatments for HD, recent efforts have focused on development of nucleotide-based therapeutics to lower HTT expression. As an alternative to siRNA or oligonucleotide methods, we hypothesized that suppression of HTT expression might be accomplished by small molecules that either (1) directly decrease HTT expression by suppressing HTT promoter activity or (2) indirectly decrease HTT expression by increasing the promoter activity of HTT-AS, the gene antisense to HTT that appears to inhibit expression of HTT.
We developed and employed a high throughput screen for modifiers of HTT and HTT-AS promoter activity using luminescent reporter HEK293 cells; of the 52,041 compounds tested, we identified 898 replicable hits. We used a rigorous stepwise approach to assess compound toxicity and the capacity of the compounds to specifically lower huntingtin protein in 5 different cell lines, including HEK293 cells, HD lymphoblastoid cells, mouse primary neurons, HD iPSCs differentiated into cortical-like neurons, and HD hESCs. We found no compounds which were able to lower huntingtin without lowering cell viability in all assays, though the potential efficacy of a few compounds at non-toxic doses could not be excluded.
SEQUENCE No. (1, 2, 3, etc.); […] (e.g., Cells, Incubation, Reagent, etc.); VALUE and DESCRIPTION.
1; Reagent; 4 uL; 2,500 Hek293 luciferase reporter cells per wells
3; Compound; 23 nL; Control inhibitor / compound library
5; Reagent; 2.5 uL; Firefly Luc reagent; Dual-Glo Luciferase Reporter Assay System (Promega)
6; Time; 10 min; room temperature incubation
7; Detection; Luminescence; FLuc
NOTES (numbers refer to sequence above)
1; High-throughput screening, measuring luminescence from a Hek293 luciferase reporter, was performed in 1,536 well white-walled tissue-culture treated plates. 2,500 cells were plated in 4 µL of Opti-MEM per well using a Multidrop Combi Reagent Dispenser (ThermoFisher).
2; Assay plates were cultured for 24 hours.
3; Control inhibitor (PTC124; final concentration of 50 uM) and compound library (at final concentrations of 460 nM - 57.5 uM) were added to the assay plate using the Kalypsis Pintool Robotic System equipped with 1536 pinheads.
4; Cells were then incubated for 24 hours at 37 degrees C prior to luminescence measurements.
5; In all cases, luminescence was measured using the Dual-Glo Luciferase Reporter Assay System (Promega) following the manufacturer's instructions.
6; Room temperature incubation.
7; Luminescence signal was obtained using the PerkinElmer ViewLux plate reader. Results were normalized to vehicle control (0% activity) and zero RLU (-100% activity).
Potency is read from the fitted curve at half-maximal effect; tags tell the direction and shape of the fitted curve.

SMILES | Potency | activity change, negative = inhibition
CCOc1ccccc1N(CC(=O)Nc1ccc(OC)c(Cl)c1)S(=O)(=O)c1ccccc1 | inconclusive: 35.5 µM [inhibitor, partial curve, poor fit] | 
CCOc1ccc(-c2cc(C(=O)N3CCN(c4cccc(C(F)(F)F)c4)CC3)c3ccccc3n2)cc1 |  | inactive: -2.07%
COc1ccc(C(=O)NCC(c2ccc3c(c2)OCO3)N2CCN(c3ccc(F)cc3)CC2)cc1 (stereo not drawn) | inconclusive: 28.2 µM [inhibitor, single point] | 
Cc1ccc(N(CC(C)C)S(=O)(=O)c2nnc(NC(=O)c3cccs3)s2)cc1 |  | inactive: -1.33%
CCOc1ccc(N(CC)S(=O)(=O)N2CCCC(C(=O)NCCc3ccccc3OC)C2)cc1 (stereo not drawn) | inconclusive: 25.1 µM [inhibitor, partial curve, poor fit] | 
Cc1cccc(Oc2coc3cc(OCC(=O)NC4CCCCC4)ccc3c2=O)c1 | inconclusive: 17.8 µM [inhibitor, partial curve] | 
O=c1c(-c2ccc(O)cc2)coc2cc(O)ccc12 |  | inactive: 0.393%
O=C(Nc1ccc(C(=O)N2CCN(c3ccc(Cl)cc3)CC2)cc1)c1nsc2ccccc12 | inconclusive: 14.1 µM [inhibitor, partial curve, poor fit] | 
Cc1ccc(Cn2c(C)c(CNC(C)c3ccccc3)c(C(=O)O)c2C)cc1 (stereo not drawn) | inconclusive: 12.6 µM [inhibitor, partial curve, poor fit] | 
O=C(O)CCCCC(CCSCc1ccccc1)SCc1ccccc1 (stereo not drawn) |  | inactive: 35.6%
Cc1ccc(-c2nnc(Nc3cccc(C(F)(F)F)c3)c3ccccc23)cc1S(=O)(=O)N1CCOCC1 | inconclusive: 20 µM [inhibitor, partial curve, poor fit] | 
Cc1cccc2sc(N(CCCN(C)C)C(=O)COc3ccccc3)nc12 |  | inactive: -1.54%
CCN(CC)S(=O)(=O)c1ccc2oc(C(=O)NCc3ccccc3OC)c(C)c2c1 | inconclusive: 39.8 µM [inhibitor, single point] | 
CCOc1ccc(N(CC)S(=O)(=O)N2CCCC(C(=O)NCCc3ccc(OC)cc3)C2)cc1 (stereo not drawn) | inconclusive: 28.2 µM [inhibitor, single point] | 
Cc1ccc(C)c(N2CCN(C(=O)c3cc(S(=O)(=O)N4CCCCCC4)cn3C)CC2)c1 | inconclusive: 31.6 µM [inhibitor, single point] | 
Cc1cc(C)c2c(n1)sc1c(=O)n(-c3cc(Cl)ccc3C)nnc12 | inconclusive: 39.8 µM [inhibitor, single point] | 
CCCCN(C)CCCNC(=O)Cn1ncc2c3ccccc3n(Cc3cc(C)ccc3C)c2c1=O | inconclusive: 28.2 µM [inhibitor, single point] | 
CCC(=O)N1c2ccc(S(=O)(=O)CCC(=O)Nc3ccc(Br)c(C)c3)cc2CC1C (stereo not drawn) | inconclusive: 39.8 µM [inhibitor, single point] | 
CCOCCCN(Cc1ccco1)C(=O)c1cc2c(=O)[nH]c3ccc(C)cc3c2s1 | inconclusive: 39.8 µM [inhibitor, partial curve, poor fit] | 

SMILES | Potency | activity change, negative = inhibition
O=C(NCc1cccs1)c1ccc(Cn2c(SCc3ccc(F)cc3)nc3cccnc32)cc1 | inconclusive: 39.8 µM [inhibitor, single point] | 
COc1ccc(C(=O)N2c3ccc(C)cc3C(C)(c3ccccc3)CC2(C)C)cc1 (stereo not drawn) | inconclusive: 28.2 µM [inhibitor, single point] | 
COc1ccc(CNC(=O)CCCn2c(=O)c3cccn3c3cccnc32)cc1 |  | inactive: 6.72%
O=S(=O)(c1cccc(F)c1)N1CCC(Oc2ccc(-n3cnnn3)cc2)CC1 | inconclusive: 31.6 µM [inhibitor, single point] | 
CCc1ccc(S(=O)(=O)c2c(C(=O)c3ccccc3)cnc3ccc(CC)cc23)cc1 | inconclusive: 31.6 µM [inhibitor, single point] | 
COc1ccccc1CN1CCC(CNC(=O)c2cnn(-c3ccc(Cl)cc3)c2C2CCN(C(=O)OC(C)(C)C)CC2)CC1 | inconclusive: 22.4 µM [inhibitor, partial curve] | 
Cc1ccccc1NC(=O)c1ccc(Cl)c(S(=O)(=O)N2CCCCCC2)c1 | inconclusive: 31.6 µM [inhibitor, partial curve, poor fit] | 
COc1ccc(NC(=O)CSc2nccn2Cc2ccco2)c(OC)c1 |  | inactive: 24.7%
CC1=C(C(=O)Nc2ccc(Cl)cc2)C(c2ccc(C(F)(F)F)cc2)n2nnnc2N1 (stereo not drawn) |  | inactive: -17.6%
CCOC(=O)c1cc(-c2ccc(OC)cc2)n(CCC(=O)Nc2nc3ccc(OCC)cc3s2)c1C | inconclusive: 35.5 µM [inhibitor, partial curve, poor fit] | 
CCc1ccccc1NC(=O)CSc1ncc(S(=O)(=O)c2ccc(C(C)C)cc2)c(N)n1 | inconclusive: 25.1 µM [inhibitor, partial curve] | 
Cc1cccc(NC(=O)CSc2nc3ccc(NC(=O)COc4ccccc4F)cc3s2)c1 |  | inactive: -23.5%
Cc1ccc(NC(=O)C2CCCN2S(=O)(=O)c2ccc3c(c2)CCCC(=O)N3)cc1Cl (stereo not drawn) | inconclusive: 28.2 µM [inhibitor, partial curve, poor fit] | 
O=C(CSc1ccc2nc(-c3ccccc3)cn2n1)Nc1cccc(F)c1 | inconclusive: 39.8 µM [inhibitor, single point] | 
COc1ccc(NC(=O)c2c(NC(=O)Cc3ccccc3)sc3c2CCCC3)cc1 | inconclusive: 7.94 µM [inhibitor, partial curve] | 
Cc1cc(F)ccc1NC(=O)Cn1c(=O)ccc2cc(S(=O)(=O)N3CCC(C)CC3)ccc21 | inconclusive: 14.1 µM [inhibitor, partial curve] | 
COc1ccc(CCNC(=O)c2ccc3c(c2)N(Cc2ccccc2C)C(=O)c2ccccc2S3)cc1OC | inconclusive: 22.4 µM [inhibitor, partial curve] | 
Cc1ccc(Cl)cc1N1CCN(C(=O)c2cc3c(-c4ccccc4F)nn(C)c3s2)CC1 | inconclusive: 31.6 µM [inhibitor, single point] | 
COc1ccc(NC(=O)CSc2nc(-c3ccco3)cc(C(F)(F)F)n2)cc1Cl | inconclusive: 17.8 µM [inhibitor, partial curve, poor fit] | 

Source: PubChem BioAssay AID1508623 (National Center for Advancing Translational Sciences (NCATS), 2021)
